# Test results taken from PubChem BioAssay AID686978 (National Center for Advancing Translational Sciences (NCATS), 2013).
# Among all 420,000 compounds or so, about 64,000 (15%) were called active. The inconclusive results got no clear call from the source; some entries with a clear call stand among them for comparison. Calls follow the shape of the dose curve; as a rule, active = well fitted inhibition curve with a large enough effect; inconclusive = small, poorly fitted or top-dose-only effect; inactive = flat fitted curve, though single readings scatter. Potencies of inconclusive entries are left out as doubtful fits.
# Experiment: qHTS for Inhibitors of human tyrosyl-DNA phosphodiesterase 1 (TDP1): qHTS in cells in absence of CPT; also: nearly all actives have a fitted effect of over 55% in size
# Conditions: DT40 Tdp1-/- hTDP1 cells, no CPT, ATP luminescence, 48 h; series mostly up to 46.2 µM
# How it was run: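 DT40 Tdp1-/-;hTDP1 cells, no CPT (DMSO vehicle only), 400 cells/well; compounds pin-transferred; ≥48 hr, 37 °C; CellTiter-Glo 30 min RT dark, luminescence read.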
# Potency is read from the fitted curve at half-maximal effect; tags tell the direction and shape of the fitted curve.
row,Structure (SMILES),Potency
1,COc1ccccc1N1CCN(C(CNC(=O)C2CCCCC2)c2cccnc2)CC1 (centres undefined),active: 10.3 µM
2,O=C(O)c1cccc(-c2ccccc2)c1O,inactive
3,O=C(CN1C(=O)C(=O)N(C2CCCC2)C1=O)Nc1cc(Cl)ccc1[N+](=O)[O-],inactive
4,O=C(Nc1cccc([N+](=O)[O-])c1)C12CC3CC(C1)CC(n1cnc([N+](=O)[O-])n1)(C3)C2,"inconclusive [inhibitor, single point]"
5,CCOCc1c(C(=O)NCc2ccccc2CN2CCCC2)oc2ccccc12,"inconclusive [inhibitor, single point]"
6,COc1cc(NC(=O)c2cccs2)c(C(=O)OCC(=O)NC(=O)NCc2ccccc2)cc1OC,"inconclusive [inhibitor, partial curve]"
7,COc1ccc(C=O)c(-c2c(-c3ccccc3OC)sc3ccccc23)c1,"inconclusive [inhibitor, single point]"
8,Cc1ncc(CO)c(/C=N/NC(=O)c2cccc(S(=O)(=O)N3CCCC3)c2)c1O,"inconclusive [inhibitor, single point]"
9,Cn1cc(C(=O)NCc2cccs2)c(=O)c2cc(S(=O)(=O)N3CCCC3)ccc21,"inconclusive [inhibitor, partial curve]"
10,OC(c1ccc(F)c(F)c1)c1nc(-c2ccc3ccccc3c2)cs1 (centres undefined),"inconclusive [inhibitor, single point]"
11,O=S(=O)(c1cccc(Br)c1)N1CCN(c2ncnc3scc(-c4ccccc4)c23)CC1,"inconclusive [inhibitor, single point]"
12,CCCCc1c(O)cc(C)[nH]c1=O,inactive
13,COc1ccc(Cc2nc3ccc(C(=O)NC(C)Cc4ncccc4C)cc3o2)cc1OC (centres undefined),"inconclusive [inhibitor, single point]"
14,Cc1ccc(CNC(=O)CCCc2cn(C)c3ccccc23)cc1,"inconclusive [inhibitor, single point]"
15,Nc1[nH]c(C(=O)c2ccccc2)c(-c2ccc(Br)cc2)c1C(=O)c1cccs1,"inconclusive [inhibitor, single point]"
16,CCOc1ccccc1NC(=O)Cn1c(=O)ccc2cc(S(=O)(=O)N3CCC(C)CC3)ccc21,active: 25.9 µM
17,O=c1c2c3c(sc2nnn1Cc1ccc(Br)cc1)CCCC3,"inconclusive [inhibitor, partial curve]"
18,Clc1ccc2nc(-c3ccccc3)nc(C(Cl)Cl)c2c1,active: 0.366 µM
19,CC1CCC2(CC1)NC(=O)N(CC(=O)N(Cc1ccccc1)C(C)(C)C)C2=O (centres undefined),"inconclusive [inhibitor, single point]"
